The whole screen tested about 150,000 compounds, of which about 540 (0.36%) showed an effect of 50% or more. The list shows a part of the results.

The test relates to Plasmodium falciparum. The experiment in a line: Primary screen in NF54 nanoGlo assay, in single point, at 2uM, 72h; a lower Z score goes with more inhibition. In kind it is functional, Erythrocyte. The following applies: timepoint 72 hour.
Take `CC(C)(C)[C@H]1CCc2c(sc(NC(=O)c3ccccc3F)c2C(=O)N2CCCC2)C1`: the “% Inhibition” value is -2% and the Z score stood at 0.47.
On to `Clc1ccc(NC2(c3noc(Cn4cccn4)n3)CCC2)cc1`, for which the “% Inhibition” value was -1% and the Z score is listed as 0.13.
For `CCCn1c(=O)c(C(=O)O)c(Nc2ccc(Cl)cc2)c2ccccc21`, in that order: -8% and 1.11.
As to `OCc1cc(CO)c(O)c(CCc2ccccc2)n1`, the “% Inhibition” value was -7% and the Z score is recorded as 1.32.
The like results for `Fc1cccc(-n2ncnc2[C@H]2CCCNCC2)c1` were, in that order, -3% and 0.27.
The like results for `CCn1ccc(CN(C)C2Cc3ccccc3C2)n1` were, in that order, -1% and 0.22.
Take `COCc1nnc(C(=O)N(C)Cc2cccnc2)o1`: the “% Inhibition” value is 1% and the Z score is given as -0.23.
For `O=C(NCCc1ccc(OC(F)F)cc1)c1ccc(S(=O)(=O)N2CCCCCC2)cc1`, in that order: -17% and 2.69.
The like results for `O=C(Nc1nc(-c2ccccn2)cs1)c1cc(S(=O)(=O)N2CCCCC2)ccc1Cl` were, in that order, 2% and -0.32.
The like results for `CCN=C(NCC1CCCO1)NCC1CCOC1c1ccccc1` (stereo not drawn) were, in that order, -2% and 0.3.
Regarding `CCCN(C(=O)Cn1ncc2c([nH]c3ccc(C)cc32)c1=O)c1ccc(F)cc1`, the “% Inhibition” value is reported as 4% and the Z score is on record as -0.67.
The like results for `CCCCN1CCN([C@@H](C(=O)NCc2cc(C)[nH]n2)c2ccccc2)C(=O)C1=O` were, in that order, -12% and 1.68.
For `CN(Cc1cscn1)c1c(F)cc(S(N)(=O)=O)cc1Br`, in that order: -2% and 0.38.
`CN(C)c1ccc(NC(=O)c2cccnc2Oc2ccc(F)cc2Br)nc1`: the “% Inhibition” value is -2% and the Z score stood at 0.39.
Regarding `O=C(CN1CCN(S(=O)(=O)c2cccs2)CC1)NCCc1ccc(Cl)cc1`, the “% Inhibition” value is given as -9% and the Z score came to 1.18.
For `Cc1cc(C(=O)N2CC[C@H](O)[C@@H](O)C2)ccc1F`, in that order: 4% and -0.68.
In the case of `CCN(Cc1cnc2c(-c3ccccc3)cnn2c1)Cc1noc(C)n1`, the “% Inhibition” value was -8% and the Z score came out at 1.35.
For `COCCOC1CN(C(=O)C(C)(C)N2CCOCC2)C1`, in that order: -6% and 0.99.
For `Cc1cc([C@@H]2CCCCN2CCn2cc(Cl)cn2)no1`, in that order: -11% and 1.54.
Turning to `Cc1nc(CCS(=O)(=O)C[C@H]2CCCO2)cs1`, the “% Inhibition” value is 12% and the Z score is recorded as -1.16.
Take `CCO[C@H]1CCN(C(=O)c2ccc3c(c2)NC(=O)C3(C)C)C1`: the “% Inhibition” value was 0% and the Z score is on record as -0.07.
The like results for `CCN1CCN(C2(C(=O)N3CCC[C@H](OC)C3)Cc3ccccc3C2)CC1` were, in that order, 6% and -0.88.
The like results for `Cc1ccc(N2C[C@H](Cc3ccccc3)N(C(=O)c3c[nH]c(=O)[nH]3)CC2=O)cc1` were, in that order, 4% and -0.6.
The like results for `Cc1cccc(CNS(=O)(=O)c2ccc3c(c2)sc(=O)n3CCC(=O)N2CCCCC2)c1` were, in that order, 13% and -1.47.
Regarding `CS(=O)(=O)N1CC(C(=O)N2CCC[C@H]2C(F)(F)F)C1`, the “% Inhibition” value was -2% and the Z score was found to be 0.25.
The like results for `Cc1cc(CN(C)CCCc2c(Cl)cccc2Cl)no1` were, in that order, 2% and -0.37.
For `Cc1ccc(O[C@H]2CCOC[C@H]2NC(=O)Cc2ccsc2)cn1`, the “% Inhibition” value is given as 0% and the Z score came out at 0.02.
On to `Cc1c(C(=O)O)cccc1S(=O)(=O)NCCN(C)C1CCCC1`, for which the “% Inhibition” value is recorded as -11% and the Z score was found to be 1.6.
The like results for `Cc1cc(C(=O)N2CCCC[C@@H]2Cc2ccc(F)cc2)on1` were, in that order, -14% and 1.78.
For `O=C(c1c[nH]c2ccccc12)C(O)C(c1ccc(Cl)cc1)N1CCNCC1` (stereo not drawn), in that order: 3% and -0.34.
For `Cn1cc(C2OCCC2CNCc2ccco2)cn1` (stereo not drawn), in that order: 2% and -0.26.
As to `N#Cc1c(F)cccc1NC1(CCO)CCCC1`, the “% Inhibition” value worked out at 2% and the Z score is -0.32.
The like results for `Cc1cc2nc(Cc3ccc(F)cc3)n([C@@H](C(=O)NCc3ccncc3)c3ccccc3)c2cc1C` were, in that order, 2% and -0.29.
The like results for `Cc1cccc(-c2nc([C@H]3CCOC3)no2)c1F` were, in that order, -10% and 2.1.
The like results for `Cc1ccc(-n2nc(N3CCN(S(=O)(=O)c4ccc5c(c4)CCCC5)CC3)ccc2=O)cc1` were, in that order, 13% and -1.46.
In the case of `O=C1CC[C@H](C(=O)NCC2CC23CCc2ccccc23)N1` (stereo partly drawn), the “% Inhibition” value is -9% and the Z score stood at 1.01.
For `Cc1ccsc1[C@H](CNC(=O)c1ccc2[nH]c(=O)[nH]c2c1)N(C)C`, in that order: 7% and -1.1.
`CCOC(=O)c1ccc(NS(=O)(=O)C[C@H](OC)C(C)C)c(O)c1`: the “% Inhibition” value worked out at 6% and the Z score is on record as -0.59.
In the case of `Cc1csc(CN(C)Cc2nc(C(F)(F)F)no2)n1`, the “% Inhibition” value was -8% and the Z score is recorded as 1.36.
With `COc1nccc(CNC2(c3ccc(F)cc3F)CCOCC2)n1`, the “% Inhibition” value was -5% and the Z score worked out at 0.88.
For `CCN=C(NCc1ccccn1)NCc1ccc(OC)cc1OC`, in that order: -5% and 0.81.
The like results for `Cc1cnc([C@H](C)NC(=O)NCc2c(C)nc3ccccn23)s1` were, in that order, -2% and 0.35.
`CC(=O)Nc1ccc(C)cc1S(=O)(=O)N1CC=C(c2c(C)n(Cc3ccc(Cl)cc3)c3ccccc23)CC1`: the “% Inhibition” value is -14% and the Z score amounted to 1.87.
The like results for `CN(CC1CCC1)C(=O)NCc1nnn(C)n1` were, in that order, -8% and 1.37.
For `CCN(CC)S(=O)(=O)NC[C@H]1CCCN1C(=O)OC(C)(C)C`, in that order: -7% and 0.69.
`COC[C@H]1CCN1C(=O)c1ccc(C(C)C)s1`: the “% Inhibition” value is reported as -6% and the Z score was 0.57.
The like results for `COc1ccc(-c2cc(C(=O)NCCN3CCOCC3)c3cccc(-c4ccc(F)cc4)c3n2)cc1` were, in that order, 3% and -0.43.
On to `Cc1cccnc1Nc1nc(C)c(C(=O)Nc2ccc3c(c2)OCO3)s1`, for which the “% Inhibition” value was -7% and the Z score was 1.03.
For `CCC(CCO)CNS(=O)(=O)CC1CN(C(=O)OCc2ccccc2)CCO1` (stereo not drawn), in that order: -9% and 1.15.
`COC(=O)[C@@H]1CC[C@@H](c2ccccc2)N1Cc1nc(C(C)C)no1`: the “% Inhibition” value is listed as -6% and the Z score was 0.77.
As to `CN1CCO[C@@H](CNC(=NC2CC2)NCc2ccccc2F)C1`, the “% Inhibition” value is given as 0% and the Z score worked out at 0.06.
For `O=C1NC[C@H]2CN(Cc3cc4ccccc4s3)CCN12`, in that order: -5% and 0.66.
For `CC(=O)N[C@H]1C[C@@H](c2c(Cl)ccc(C)c2F)O[C@@H](C(C)C)C1`, in that order: -4% and 0.5.
As for `CC(C)c1ccc(C(=O)N2CC[C@@]3(CO)CN(Cc4ccccc4)C[C@H]3C2)cc1`, the “% Inhibition” value is -12% and the Z score worked out at 2.14.

(Values after ChEMBL document CHEMBL4888484, “Replenishing the malaria drug discovery pipeline: Screening and hit evaluation of the MMV Hit Generation Library 1 (HGL1) against asexual blood stage Plasmodium falciparum ,using a nano luciferase reporter read-out” (2022).)
